{"source": "the supplement of paper PMC11876631", "proteins": {"B1": {"name": "cysJ I570A (protein)", "chain": "MTTQVPPSALLPLNPEQLARLQAATTDLTPTQLAWVSGYFWGVLNQQPAALAATPAPAAEMPGITIISASQTGNARRVAEALRDDLLAAKLNVKLVNAGDYKFKQIASEKLLIVVTSTQGEGEPPEEAVALHKFLFSKKAPKLENTAFAVFSLGDSSYEFFCQSGKDFDSKLAELGGERLLDRVDADVEYQAAASEWRARVVDALKSRAPVAAPSQSVATGAVNEIHTSPYSKDAPLVASLSVNQKITGRNSEKDVRHIEIDLGDSGMRYQPGDALGVWYQNDPALVKELVELLWLKGDEPVTVEGKTLPLNEALQWHFELTVNTANIVENYATLTRSETLLPLVGDKAKLQHYAATTPIVDMVRFSPAQLDAEALINLLRPLTPRLYSIASSQAEVENEVHVTVGVVRYDVEGRARAGGASSFLADRVEEEGEVRVFIEHNDNFRLPANPETPVIMIGPGTGIAPFRAFMQQRAADEAPGKNWLFFGNPHFTEDFLYQVEWQRYVKDGVLTRIDLAWSRDQKEKVYVQDKLREQGAELWRWINDGAHIYVCGDANRMAKDVEQALLEVAAEFGGMDTEAADEFLSELRVERRYQRDVY"}, "B2": {"name": "cysJ I570W (protein)", "chain": "MTTQVPPSALLPLNPEQLARLQAATTDLTPTQLAWVSGYFWGVLNQQPAALAATPAPAAEMPGITIISASQTGNARRVAEALRDDLLAAKLNVKLVNAGDYKFKQIASEKLLIVVTSTQGEGEPPEEAVALHKFLFSKKAPKLENTAFAVFSLGDSSYEFFCQSGKDFDSKLAELGGERLLDRVDADVEYQAAASEWRARVVDALKSRAPVAAPSQSVATGAVNEIHTSPYSKDAPLVASLSVNQKITGRNSEKDVRHIEIDLGDSGMRYQPGDALGVWYQNDPALVKELVELLWLKGDEPVTVEGKTLPLNEALQWHFELTVNTANIVENYATLTRSETLLPLVGDKAKLQHYAATTPIVDMVRFSPAQLDAEALINLLRPLTPRLYSIASSQAEVENEVHVTVGVVRYDVEGRARAGGASSFLADRVEEEGEVRVFIEHNDNFRLPANPETPVIMIGPGTGIAPFRAFMQQRAADEAPGKNWLFFGNPHFTEDFLYQVEWQRYVKDGVLTRIDLAWSRDQKEKVYVQDKLREQGAELWRWINDGAHIYVCGDANRMAKDVEQALLEVWAEFGGMDTEAADEFLSELRVERRYQRDVY"}, "B3": {"name": "cysJ V364A (protein)", "chain": "MTTQVPPSALLPLNPEQLARLQAATTDLTPTQLAWVSGYFWGVLNQQPAALAATPAPAAEMPGITIISASQTGNARRVAEALRDDLLAAKLNVKLVNAGDYKFKQIASEKLLIVVTSTQGEGEPPEEAVALHKFLFSKKAPKLENTAFAVFSLGDSSYEFFCQSGKDFDSKLAELGGERLLDRVDADVEYQAAASEWRARVVDALKSRAPVAAPSQSVATGAVNEIHTSPYSKDAPLVASLSVNQKITGRNSEKDVRHIEIDLGDSGMRYQPGDALGVWYQNDPALVKELVELLWLKGDEPVTVEGKTLPLNEALQWHFELTVNTANIVENYATLTRSETLLPLVGDKAKLQHYAATTPIVDMARFSPAQLDAEALINLLRPLTPRLYSIASSQAEVENEVHVTVGVVRYDVEGRARAGGASSFLADRVEEEGEVRVFIEHNDNFRLPANPETPVIMIGPGTGIAPFRAFMQQRAADEAPGKNWLFFGNPHFTEDFLYQVEWQRYVKDGVLTRIDLAWSRDQKEKVYVQDKLREQGAELWRWINDGAHIYVCGDANRMAKDVEQALLEVIAEFGGMDTEAADEFLSELRVERRYQRDVY"}, "B4": {"name": "cysJ V364W (protein)", "chain": "MTTQVPPSALLPLNPEQLARLQAATTDLTPTQLAWVSGYFWGVLNQQPAALAATPAPAAEMPGITIISASQTGNARRVAEALRDDLLAAKLNVKLVNAGDYKFKQIASEKLLIVVTSTQGEGEPPEEAVALHKFLFSKKAPKLENTAFAVFSLGDSSYEFFCQSGKDFDSKLAELGGERLLDRVDADVEYQAAASEWRARVVDALKSRAPVAAPSQSVATGAVNEIHTSPYSKDAPLVASLSVNQKITGRNSEKDVRHIEIDLGDSGMRYQPGDALGVWYQNDPALVKELVELLWLKGDEPVTVEGKTLPLNEALQWHFELTVNTANIVENYATLTRSETLLPLVGDKAKLQHYAATTPIVDMWRFSPAQLDAEALINLLRPLTPRLYSIASSQAEVENEVHVTVGVVRYDVEGRARAGGASSFLADRVEEEGEVRVFIEHNDNFRLPANPETPVIMIGPGTGIAPFRAFMQQRAADEAPGKNWLFFGNPHFTEDFLYQVEWQRYVKDGVLTRIDLAWSRDQKEKVYVQDKLREQGAELWRWINDGAHIYVCGDANRMAKDVEQALLEVIAEFGGMDTEAADEFLSELRVERRYQRDVY"}, "B5": {"name": "acpS V11W (protein)", "chain": "MAILGLGTDIWEIARIEAVIARSGDRLARRVLSDNEWAIWKTHHQPVRFLAKRFAVKEAAAKAFGTGIRNGLAFNQFEVFNDELGKPRLRLWGEALKLAEKLGVANMHVTLADERHYACATVIIES"}, "B6": {"name": "acpS V11Q (protein)", "chain": "MAILGLGTDIQEIARIEAVIARSGDRLARRVLSDNEWAIWKTHHQPVRFLAKRFAVKEAAAKAFGTGIRNGLAFNQFEVFNDELGKPRLRLWGEALKLAEKLGVANMHVTLADERHYACATVIIES"}, "B7": {"name": "cysI V238A (protein)", "chain": "MSEKHPGPLVVEGKLTDAERMKHESNYLRGTIAEDLNDGLTGGFKGDNFLLIRFHGMYQQDDRDIRAERAEQKLEPRHAMLLRCRLPGGVITTKQWQAIDKFAGENTIYGSIRLTNRQTFQFHGILKKNVKPVHQMLHSVGLDALATANDMNRNVLCTSNPYESQLHAEAYEWAKKISEHLLPRTRAYAEIWLDQEKVATTDEEPILGQTYLPRKFKTTVVIPPQNDIDLHANDMNFAAIAENGKLVGFNLLVGGGLSIEHGNKKTYARTASEFGYLPLEHTLAVAEAVVTTQRDWGNRTDRKNAKTKYTLERVGVETFKAEVERRAGIKFEPIRPYEFTGRGDRIGWVKGIDDNWHLTLFIENGRILDYPARPLKTGLLEIAKIHKGDFRITANQNLIIAGVPESEKAKIEKIAKESGLMNAVTPQRENSMACVSFPTCPLAMAEAERFLPSFIDNIDNLMAKHGVSDEHIVMRVTGCPNGCGRAMLAEVGLVGKAPGRYNLHLGGNRIGTRIPRMYKENITEPEILASLDELIGRWAKEREAGEGFGDFTVRAGIIRPVLDPARDLWD"}, "B8": {"name": "cysI V238Q (protein)", "chain": "MSEKHPGPLVVEGKLTDAERMKHESNYLRGTIAEDLNDGLTGGFKGDNFLLIRFHGMYQQDDRDIRAERAEQKLEPRHAMLLRCRLPGGVITTKQWQAIDKFAGENTIYGSIRLTNRQTFQFHGILKKNVKPVHQMLHSVGLDALATANDMNRNVLCTSNPYESQLHAEAYEWAKKISEHLLPRTRAYAEIWLDQEKVATTDEEPILGQTYLPRKFKTTVVIPPQNDIDLHANDMNFQAIAENGKLVGFNLLVGGGLSIEHGNKKTYARTASEFGYLPLEHTLAVAEAVVTTQRDWGNRTDRKNAKTKYTLERVGVETFKAEVERRAGIKFEPIRPYEFTGRGDRIGWVKGIDDNWHLTLFIENGRILDYPARPLKTGLLEIAKIHKGDFRITANQNLIIAGVPESEKAKIEKIAKESGLMNAVTPQRENSMACVSFPTCPLAMAEAERFLPSFIDNIDNLMAKHGVSDEHIVMRVTGCPNGCGRAMLAEVGLVGKAPGRYNLHLGGNRIGTRIPRMYKENITEPEILASLDELIGRWAKEREAGEGFGDFTVRAGIIRPVLDPARDLWD"}, "B9": {"name": "cysI V238P (protein)", "chain": "MSEKHPGPLVVEGKLTDAERMKHESNYLRGTIAEDLNDGLTGGFKGDNFLLIRFHGMYQQDDRDIRAERAEQKLEPRHAMLLRCRLPGGVITTKQWQAIDKFAGENTIYGSIRLTNRQTFQFHGILKKNVKPVHQMLHSVGLDALATANDMNRNVLCTSNPYESQLHAEAYEWAKKISEHLLPRTRAYAEIWLDQEKVATTDEEPILGQTYLPRKFKTTVVIPPQNDIDLHANDMNFPAIAENGKLVGFNLLVGGGLSIEHGNKKTYARTASEFGYLPLEHTLAVAEAVVTTQRDWGNRTDRKNAKTKYTLERVGVETFKAEVERRAGIKFEPIRPYEFTGRGDRIGWVKGIDDNWHLTLFIENGRILDYPARPLKTGLLEIAKIHKGDFRITANQNLIIAGVPESEKAKIEKIAKESGLMNAVTPQRENSMACVSFPTCPLAMAEAERFLPSFIDNIDNLMAKHGVSDEHIVMRVTGCPNGCGRAMLAEVGLVGKAPGRYNLHLGGNRIGTRIPRMYKENITEPEILASLDELIGRWAKEREAGEGFGDFTVRAGIIRPVLDPARDLWD"}, "B10": {"name": "cysI V238W (protein)", "chain": "MSEKHPGPLVVEGKLTDAERMKHESNYLRGTIAEDLNDGLTGGFKGDNFLLIRFHGMYQQDDRDIRAERAEQKLEPRHAMLLRCRLPGGVITTKQWQAIDKFAGENTIYGSIRLTNRQTFQFHGILKKNVKPVHQMLHSVGLDALATANDMNRNVLCTSNPYESQLHAEAYEWAKKISEHLLPRTRAYAEIWLDQEKVATTDEEPILGQTYLPRKFKTTVVIPPQNDIDLHANDMNFWAIAENGKLVGFNLLVGGGLSIEHGNKKTYARTASEFGYLPLEHTLAVAEAVVTTQRDWGNRTDRKNAKTKYTLERVGVETFKAEVERRAGIKFEPIRPYEFTGRGDRIGWVKGIDDNWHLTLFIENGRILDYPARPLKTGLLEIAKIHKGDFRITANQNLIIAGVPESEKAKIEKIAKESGLMNAVTPQRENSMACVSFPTCPLAMAEAERFLPSFIDNIDNLMAKHGVSDEHIVMRVTGCPNGCGRAMLAEVGLVGKAPGRYNLHLGGNRIGTRIPRMYKENITEPEILASLDELIGRWAKEREAGEGFGDFTVRAGIIRPVLDPARDLWD"}}, "note": "± gives the standard deviation of the averaged measurements. Laboratory Escherichia coli strains with one amino-acid change in an essential protein, pooled on minimal glucose agar with carbenicillin or gentamicin at twice the control MIC (plus kanamycin and chloramphenicol for the plasmids), 48 h. Fold change of barcode share against drug-free plates; higher = less susceptible. Active = above 20 in both replicates (the paper's putatively resistant). '<' = one read or none on drug, '>' = one read or none on a drug-free plate. Shares are relative, so most strains fall below 1 when a few take over. Listed are strains with at least 15 reads on both drug-free plates, and hits; most hits rest on fewer reference reads. Replicate rank correlation about 0.5. Edits are read from barcodes.", "data": [{"target": "Escherichia coli (laboratory strain)", "test": "barcode share on antibiotic plates over drug-free plates; higher = less susceptible", "conditions": "antibiotic: carbenicillin; 2× MIC (3.1 µg/mL)", "method": "(§1)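 A pool of E. coli strains, each edited to carry one amino-acid change in an essential protein, was grown for 48 h on minimal glucose agar with or without antibiotic; strain barcodes were sequenced; mean of two replicates.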", "values": [{"protein": "B1", "fold change of barcode share": "0.545 ± 0.23"}, {"protein": "B2", "fold change of barcode share": "0.321 ± 0.011"}, {"protein": "B3", "fold change of barcode share": "0.19 ± 0.09"}, {"protein": "B4", "fold change of barcode share": "0.657 ± 0.47"}, {"protein": "B5", "fold change of barcode share": "0.161 ± 0.087"}, {"protein": "B6", "fold change of barcode share": "0.245 ± 0.0063"}, {"protein": "B7", "fold change of barcode share": "0.756 ± 0.24"}, {"protein": "B8", "fold change of barcode share": "1.006 ± 0.0043"}, {"protein": "B9", "fold change of barcode share": "2.58 ± 2.3"}, {"protein": "B10", "fold change of barcode share": "1.76 ± 1"}]}, {"target": "Escherichia coli (laboratory strain)", "test": "barcode share on antibiotic plates over drug-free plates; higher = less susceptible", "conditions": "antibiotic: gentamicin; 2× MIC (MIC 0.45 µg/mL)", "method": "as §1", "values": [{"protein": "B1", "fold change of barcode share": "0.0145 ± 0.0072"}, {"protein": "B3", "fold change of barcode share": "0.0225 ± 0.0055"}, {"protein": "B4", "fold change of barcode share": "< 0.00938"}, {"protein": "B5", "fold change of barcode share": "< 0.0111"}, {"protein": "B6", "fold change of barcode share": "0.00542 ± 0.0043"}, {"protein": "B7", "fold change of barcode share": "0.03579 ± 3.7e-05"}, {"protein": "B8", "fold change of barcode share": "0.131 ± 0.06"}, {"protein": "B9", "fold change of barcode share": "0.0372 ± 0.036"}, {"protein": "B10", "fold change of barcode share": "0.0244 ± 0.026"}]}]}
